Consider 16 molecules from patent US20250333508A1 (ZHEJIANG NANOMAB TECHNOLOGY CENTER, published 2025).

To fix the notation:
T1: human CTLA-4 his tag antigen (human, UniProt P16410 36-161)
T1 construct: Bought (ACRO Biosystems); also called CTLA-4. his tag protein (human); not shown: His tag
T1 sequence (looked up): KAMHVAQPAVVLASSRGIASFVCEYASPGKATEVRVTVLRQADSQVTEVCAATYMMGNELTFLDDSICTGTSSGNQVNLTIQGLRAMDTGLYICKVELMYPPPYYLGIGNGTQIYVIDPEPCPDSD

T2: ICOS. His tag (UniProt Q9Y6W8 21-140, limits assumed)
T2 construct: Bought (ACRO Biosystems); not shown: His tag
T2 sequence (looked up): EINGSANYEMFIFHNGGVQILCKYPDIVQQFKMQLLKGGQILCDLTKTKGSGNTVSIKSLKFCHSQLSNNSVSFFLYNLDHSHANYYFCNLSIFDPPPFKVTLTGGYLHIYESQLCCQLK

B1: NGS-08 (Fc fusion)
chain: EVQLVESGGGLVQPGGSLRLSCVASGFTLDDHAIGWFRQAPGKAREGVSCISSSGRTTYLLSVKGRFTITRDNAKNTAYLQMNRLQPEDTAVYYCASVPTLGTACLMTHGMRSDWGQGTQVTVSS[skipping human IgG4 Fc with S228P (EU numbers)]
B2: NGS-16 (Fc fusion)
chain: QVQLVESGGGLVQPGGSLRLSCEASGGTLDYWSIGWFRQAPGKEREEVSCISGTGLRTNYADSVKGRFTVSRDNSRNSVILQMNSLKPEDTGVYYCTGKLLHPSLWSACANEYDLWGQGTQVTVSS[skipping human IgG4 Fc with S228P (EU numbers)]
B3: NGS-13 (Fc fusion)
chain: QVQLVESGGGLVQPGGSLRLSCAASGFTLDDQAIGWFRQAPGKEREGVACISSSGRGTYLLSVKGRFTVTRDNAKNTVYLQMNRLQPEDTAVYYCASVPAVQTMCLMTHASRDDWGQGTQVTVSS[skipping human IgG4 Fc with S228P (EU numbers)]
B4: NGS-12 (Fc fusion)
chain: QVQLVESGGGLVQPGGSLRLSCAVSGFSSDYYDIGWFRQDPEKEREMVSCIRSSGGSTKYADSVKGRFTISRDNAKNTVYLQMNSLEPEDTAVYYCGLAPISPVHAVCNQHYFGYWGQGTRVTVSS[skipping human IgG4 Fc with S228P (EU numbers)]
B5: NB-879 (Fc fusion)
chain: QVQLVESGGGLVQPGGSLRLSCASSGDTLESFAVGWFRQAPGKEREELACIGRTGEFTDYPGSVKGRFTITRDNAKNTVYLEMVNLKAEDTGVYYCAAERLVFHLCSLSEYDYDTWGQGTQVTVSS[skipping human IgG4 Fc with S228P (EU numbers)]
B6: NB-27 (Fc fusion)
chain: EVQLVESGGGLAQPGGSLRLSCAASGSTLDPFVIGWFRQAPGKERETVACINRSRTSYADSVKGRFTISRDNAKNMVYLQMNSLKPEDTAVYYCAASPDKPFYTDQTMCNKHYYGYWTQGTQVTVSS[skipping human IgG4 Fc with S228P (EU numbers)]
B7: NB-783 (Fc fusion)
chain: QVQLVESGGGLAQSGGSLRLSCAVSGSTLDPFVIGWFRQAPGKERETVSCINRNRASYADGVKGRFTISRDTAKNMVYLQMNSLKPEDTAVYYCAASPDKAFYTDQTMCNIHYYGYWAQGTLVTVSS[skipping human IgG4 Fc with S228P (EU numbers)]
B8: NB-57 (Fc fusion)
chain: B7 chain with Q1E, L122Q
B9: BMK2 (Fc fusion)
chain: QVQLVESGGGLVQPGGSLRLSCAASGYIYSAYCMGWFRQAPGKGLEGVAAIYIGGGSTYYADSVKGRFTISRDNSKNTLYLQMNSLRAEDTAVYYCAADVIPTETCLGGSWSGPFGYWGQGTLVTSS[skipping human IgG4 Fc with S228P (EU numbers)]
B10: NB-784 (Fc fusion)
chain: EVQLVESGGGLVQPGGSLRLSCAVSGLNFGIYDFTWGRQAPGKGLEWIATMNPDGDITNYVDSVKGRFTISRDNANESLYLQMNSLKPEDTALYYCALGPERYFSIYATRGQGTLVTVSS[skipping human IgG4 Fc with S228P (EU numbers)]
B11: NB-879-z11 (Fc fusion)
chain: B5 chain with Q1E, S24A, L48V, T71S, A75S, E82Q, V84N, N85S, K87R, G92A
notes: Format in the assay not restated
B12: NB-879-z7 (Fc fusion)
chain: B5 chain with Q1E, S24A, E82Q, V84N, N85S, K87R, G92A
notes: as for B11
B13: NB-879-z15 (Fc fusion)
chain: B5 chain with Q1E, A75S, E82Q, N85S, K87R, G92A
notes: as for B11
B14: NB-879-z13 (Fc fusion)
chain: B5 chain with Q1E, S24A, L48V, A75S, E82Q, V84N, N85S, K87R, G92A
notes: as for B11
B15: NB-879-z14 (Fc fusion)
chain: B5 chain with Q1E, S24A, A75S, V84N, N85S, K87R, G92A
notes: as for B11
B16: NB-879-z12 (Fc fusion)
chain: B5 chain with Q1E, S24A, L48V, T71S, E82Q, V84N, N85S, K87R, G92A
notes: as for B11

Numbering of substitutions follows the chain as printed.

For the first test, the target named is T1, human CTLA-4 his tag antigen. Put plainly: competition ELISA, coated CTLA-4.his, competitor biotinylated B7-1-Fc.
With B1, the IC50 came out at 61.7 nM.
Same read-out and setting: the same measure for B2: 2.28 nM; for B3: 34.4 nM; for B4: 0.57 nM.
The same measure, in the same setting: the same measure for B5: 55.9 nM.

A further test addresses T3, murine CTLA-4. his tag protein (murine, UniProt P09793 36-161).
T3 construct: Bought (ACRO Biosystems); also called mouse CTLA-4; not shown: His tag
Put plainly: ELISA, coated his-tagged protein.
On to B6, for which the binding result is “no binding (tested: OD450 < 0.3)”.
Same read-out and setting: the entry for B7 is “no binding (tested: OD450 < 0.3)”.
For the molecule B8, the binding result was “no binding (tested: OD450 < 0.3)”.
The same measure, in the same setting: the same measure for B9: “no binding (tested: OD450 < 0.3)”; for B1: “no binding (tested: OD450 < 0.3)”.
On the same count and under the same terms, the same measure for B2: “no binding (tested: OD450 < 0.3)”; for B3: “no binding (tested: OD450 < 0.3)”.
On the same count and under the same terms, the same measure for B10: “no binding (tested: OD450 < 0.3)”.
As to B4, the binding result is “no binding (tested: OD450 < 0.3)”.
Take B5: the binding result was “no binding (tested: OD450 < 0.3)”.

The target of another test is T4, CD28. His tag (UniProt P10747 19-152, limits assumed).
T4 construct: Bought (ACRO Biosystems); not shown: His tag
T4 sequence (P10747 19-152 limits assumed): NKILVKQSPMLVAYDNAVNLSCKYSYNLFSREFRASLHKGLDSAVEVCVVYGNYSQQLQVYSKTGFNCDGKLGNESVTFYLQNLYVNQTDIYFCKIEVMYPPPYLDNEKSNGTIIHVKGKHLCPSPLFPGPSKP
Put plainly: ELISA, coated his-tagged protein. (In general: In an ELISA, binding on a coated surface is turned into a signal by an enzyme label.)
As for B6, the binding result is recorded as “no binding (tested: OD450 < 0.3)”.
B7: the binding result was “no binding (tested: OD450 < 0.3)”.
Same read-out and setting: the same measure for B8: “no binding (tested: OD450 < 0.3)”; for B9: “no binding (tested: OD450 < 0.3)”; for B1: “no binding (tested: OD450 < 0.3)”.
Same read-out and setting: the entry for B2 is “no binding (tested: OD450 < 0.3)”.
With B3, the binding result is “no binding (tested: OD450 < 0.3)”.
Still for that read-out and setting: the entry for B10 is “no binding (tested: OD450 < 0.3)”; for B4 it is “no binding (tested: OD450 < 0.3)”.
B5: the binding result is given as “no binding (tested: OD450 < 0.3)”.

The target in a further test is T5, PD-1. his tag protein (UniProt Q15116 partial chain, limits assumed).
T5 construct: Bought (ACRO Biosystems); not shown: His tag
T5 sequence (Q15116 25-167 limits assumed): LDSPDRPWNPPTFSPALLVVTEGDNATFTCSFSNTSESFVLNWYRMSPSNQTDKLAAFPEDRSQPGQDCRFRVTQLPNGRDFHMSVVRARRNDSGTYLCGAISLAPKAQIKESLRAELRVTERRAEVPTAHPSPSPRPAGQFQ
Put plainly: ELISA, coated his-tagged protein.
For B6, the binding result is reported as “no binding (tested: OD450 < 0.3)”.
On the same count and under the same terms, the entry for B7 is “no binding (tested: OD450 < 0.3)”.
The same measure, in the same setting: the same measure for B8: “no binding (tested: OD450 < 0.3)”; for B9: “no binding (tested: OD450 < 0.3)”; for B1: “no binding (tested: OD450 < 0.3)”.
With B2, the binding result was “no binding (tested: OD450 < 0.3)”.
As for B3, the binding result is “no binding (tested: OD450 < 0.3)”.
Take B10: the binding result is on record as “no binding (tested: OD450 < 0.3)”.
Still for that read-out and setting: the same measure for B4: “no binding (tested: OD450 < 0.3)”; for B5: “no binding (tested: OD450 < 0.3)”.

For another test, the target named is T2, ICOS. His tag. Put plainly: ELISA, coated his-tagged protein.
For B6, the binding result is reported as “no binding (tested: OD450 < 0.3)”.
On the same count and under the same terms, the same measure for B7: “no binding (tested: OD450 < 0.3)”; for B8: “no binding (tested: OD450 < 0.3)”; for B9: “no binding (tested: OD450 < 0.3)”.
Same read-out and setting: the entry for B1 is “no binding (tested: OD450 < 0.3)”.
Still for that read-out and setting: the same measure for B2: “no binding (tested: OD450 < 0.3)”; for B3: “no binding (tested: OD450 < 0.3)”.
Turning to B10, the binding result is listed as “no binding (tested: OD450 < 0.3)”.
In the case of B4, the binding result is “no binding (tested: OD450 < 0.3)”.
Still for that read-out and setting: the same measure for B5: “no binding (tested: OD450 < 0.3)”.

The next test addresses T1, human CTLA-4 his tag antigen. Put plainly: SPR, Ab on protein A, CTLA-4.His in flow. (Surface plasmon resonance follows binding to a sensor surface in real time, without labels.)
B2 registered a Kd of 0.42 nM, a koff of 0.00037 s⁻¹ and a kon of 880000 M⁻¹ s⁻¹.
Molecule B4 registered an equilibrium dissociation constant (Kd) of 1.32 nM and a koff of 0.00025 s⁻¹.
In the case of B5, binding was put at a Kd of 14.4 nM, the dissociation rate constant (koff) was determined as 0.00133 s⁻¹ and the kon amounted to 92700 M⁻¹ s⁻¹.
For B11, in that order: 34 nM, 0.00824 s⁻¹ and 242000 M⁻¹ s⁻¹.
For B12, in that order: 19.2 nM, 0.00246 s⁻¹ and 128000 M⁻¹ s⁻¹.
With B13, binding was characterised by a dissociation constant (Kd) of 18.4 nM, the koff amounted to 0.00216 s⁻¹ and the kon amounted to 117000 M⁻¹ s⁻¹.
The matching figures for B14: 51.9 nM, 0.00223 s⁻¹ and 43000 M⁻¹ s⁻¹.
The matching figures for B15: 17.3 nM, 0.00188 s⁻¹ and 108000 M⁻¹ s⁻¹.
In turn, B16 registered an equilibrium dissociation constant (Kd) of 35.6 nM, a koff of 0.00949 s⁻¹ and an on-rate constant (kon) of 267000 M⁻¹ s⁻¹.

The target is the same in a further test. Put plainly: SPR, Ab on protein A, CTLA-4.his in flow.
Molecule B2 showed a dissociation constant Kd of 0.42 nM, an off-rate constant (koff) of 0.00037 s⁻¹ and a kon of 880000 M⁻¹ s⁻¹.
The matching figures for B4: 1.32 nM, 0.00025 s⁻¹ and 190000 M⁻¹ s⁻¹.
For B5, in that order: 2.08 nM, 0.000168 s⁻¹ and 80900 M⁻¹ s⁻¹.

What is called IC50 is the concentration that inhibits the measured activity by half. The low end stands for inhibition by little substance, the high end for a need for much substance. Usually Kd stands for the constant that tells how readily two partners part at equilibrium. A low value points to higher affinity. Usually koff stands for a measure of how fast the partners let go of each other. Low readings indicate slow dissociation, high ones fast dissociation. The kon is a measure of how fast the partners come together.
